From ChEMBL document CHEMBL4888484, “Replenishing the malaria drug discovery pipeline: Screening and hit evaluation of the MMV Hit Generation Library 1 (HGL1) against asexual blood stage Plasmodium falciparum ,using a nano luciferase reporter read-out” (2022) come the findings set out here.

Among all 150,000 compounds or so, about 540 (0.36%) showed an effect of 50% or more. This is one part of the list.

This test deals with Plasmodium falciparum. As to the kind of experiment: Primary screen in NF54 nanoGlo assay, in single point, at 2uM, 72h; a lower Z score goes with more inhibition. The format is functional, Erythrocyte. Particulars: timepoint 72 hour.
For the compound `CCN(CC)CCC[C@H](C)NC(=O)c1cc(Cl)cc(Cl)c1`, the % Inhibition – broadly, the change of the read-out against control, counted positive when it falls – worked out at 1% and the Z score is reported as -0.11.
With `CCC(CC)C1CC(NC(=O)NCC2COCO2)CCO1` (configuration not stated), the “% Inhibition” value is -9% and the Z score is listed as 1.17.
For the compound `CCCc1nc2ccccc2n1[C@@H](CC)C(=O)N1CCN(c2nc[nH]n2)CC1`, the “% Inhibition” value amounted to 7% and the Z score is reported as -1.26.
In the case of `C[C@]1(CO)CCCN(Cc2cc(-c3ncccn3)ccc2OCC(=O)O)C1`, the “% Inhibition” value is 6% and the Z score is recorded as -0.87.
In the case of `C[C@]1(Cc2cccs2)CCCN1C(=O)Cn1nnc2c1CCCC2`, the “% Inhibition” value is -11% and the Z score is 1.37.
The like results for `CC(C)Cc1ccc(CN2CCN3C(=O)OC[C@H]3C2)s1` were, in that order, -8% and 1.17.
`CN(Cc1ncc[nH]1)C(=O)c1nc2c(s1)CCC2`: the “% Inhibition” value is reported as -4% and the Z score is on record as 0.63.
With `CCC1(O)CN(C(=O)C2CC(F)(F)C2)C1`, the “% Inhibition” value was -1% and the Z score is 0.08.
Take `COc1cccc(-c2cc(C(=O)NCC(C)(C)CNC(=O)c3cc(-c4cccc(OC)c4)nc4ccccc34)c3ccccc3n2)c1`: the “% Inhibition” value was 0% and the Z score came to 0.02.
As for `Cn1cccc1C(=O)CN1C(=O)NC2(CCCC2)C1=O`, the “% Inhibition” value was 10% and the Z score is listed as -1.13.
With `Cc1cccc(Cl)c1CC(=O)NS(=O)(=O)CC(C)C`, the “% Inhibition” value is recorded as 4% and the Z score is listed as -0.64.
On to `CN(C(=O)Cc1cnc2ccccc2c1)c1ccc(N2CCOCC2)nc1`, for which the “% Inhibition” value was -4% and the Z score amounted to 0.56.
For `O=C(NC[C@H]1CCCN(C(=O)C2(c3cccc(F)c3)CCC2)C1)c1ccccc1`, the “% Inhibition” value is on record as 0% and the Z score is on record as 0.02.
For `Cc1ccoc1C(=O)NC[C@H]1CCN(C/C=C/c2ccccc2)C1`, in that order: -7% and 0.63.
Take `O[C@H](Cc1ccccc1)Cn1ccnn1`: the “% Inhibition” value is given as -1% and the Z score was 0.17.
On to `O=C(c1ccc(S(=O)(=O)N2CCOCC2)cc1)N1CCC[C@H]1c1nnc2ccccn12`, for which the “% Inhibition” value is recorded as -2% and the Z score was 0.35.
For `CC(C(=O)NCCN1CCCC1)N1C(=O)c2ccccc2C1c1cn(C)c2ccccc12` (configuration not stated), the “% Inhibition” value stood at 29% and the Z score is given as -3.93.
Consider `C[C@H](NC(=O)C1COc2ccccc2O1)C(=O)Nc1nc2ccccc2[nH]1` (some centres not stated), for which the “% Inhibition” value is on record as -4% and the Z score worked out at 0.63.
On to `Cc1ccc(-n2ncc3c(C)nn(C)c(=O)c32)c(C)c1`, for which the “% Inhibition” value turned out to be 9% and the Z score is -1.18.
For `CC(OCC1CCCO1)c1nc(-c2[nH]nnc2-c2ccccc2)no1` (configuration not stated), in that order: -23% and 4.77.
On to `Fc1cccc2c(N3CCC(c4ccn[nH]4)CC3)ncnc12`, for which the “% Inhibition” value is on record as -7% and the Z score is 0.92.
For `N#Cc1cc(N2CCC3C(CCCN3Cc3ccccc3)C2)ncn1` (configuration not stated), the “% Inhibition” value was -1% and the Z score came to 0.19.
In the case of `CCn1ncnc1CNC1(c2ccc(Cl)c(Cl)c2)CC1`, the “% Inhibition” value was -20% and the Z score is on record as 2.53.
Turning to `Cc1cc(OC2CN(C(=O)c3cc4ccccc4[nH]3)C2)n2ncnc2n1`, the “% Inhibition” value is given as 18% and the Z score is recorded as -2.33.
As for `CC(C)CN1C(=O)CC[C@@H](C(=O)NCCc2cccs2)[C@@H]1c1cccnc1`, the “% Inhibition” value turned out to be 30% and the Z score is given as -3.43.
`CCCCOc1ccc([C@H]2C(=O)N(C3CCCCC3)CC(=O)N2C2CCCCC2)cc1`: the “% Inhibition” value is given as 2% and the Z score is recorded as -0.3.
As for `CCC(=O)N1CCc2cc3cccc(C)c3nc21`, the “% Inhibition” value is reported as -3% and the Z score turned out to be 0.36.
In the case of `O=C(Cc1cccs1)N[C@@H](CN1C(=O)COC1=O)c1ccccc1`, the “% Inhibition” value is -10% and the Z score is 1.55.
For `CNc1ncc(C(=O)Nc2ccc(N3CCOCC3)cc2)s1`, in that order: -14% and 2.09.
As to `Cc1cnc(C(=O)Nc2nc3cc4c(cc3s2)OCCCO4)cn1`, the “% Inhibition” value is -12% and the Z score is listed as 1.53.
Turning to `COc1ccc(F)cc1S(=O)(=O)N1CC[C@H](c2cccs2)C1`, the “% Inhibition” value is recorded as -7% and the Z score was found to be 1.24.
Take `CNc1ncccc1C(=O)N1CC[C@]2(OC)CC[C@@H](O)C[C@H]12`: the “% Inhibition” value is -9% and the Z score is given as 1.59.
Regarding `COc1ccccc1-c1ccc(C(=O)N2CCC(N3CCC[C@H](CO)C3)CC2)c(N2CCN(c3ccccc3F)CC2)n1`, the “% Inhibition” value is 1% and the Z score is recorded as -0.26.
Turning to `COc1cc(Cl)c(C)cc1NS(=O)(=O)c1cc(-c2ccc(=O)[nH]n2)ccc1C`, the “% Inhibition” value is -27% and the Z score is on record as 2.37.
The like results for `Cc1nc[nH]c1C(=O)N1CCn2nc(CN3CCCCCCC3)cc2C1` were, in that order, -3% and 0.59.
Consider `Nc1nc2c(c(-c3cccnc3)n1)CN(C(=O)[C@H]1CCOC1)C2`, for which the “% Inhibition” value is -13% and the Z score turned out to be 1.68.
For `CC(C)(C(=O)Nc1ccc2c(c1)OCO2)N(Cc1ccc(F)cc1)C(=O)Cc1ccccc1`, the “% Inhibition” value is -3% and the Z score is 0.32.
With `c1ccc(CCc2noc([C@H]3CCn4cncc4C3)n2)cc1`, the “% Inhibition” value is recorded as 2% and the Z score was -0.27.
For `Cc1cc(=O)n2c(n1)N(S(=O)(=O)c1cc(F)cc(F)c1)CC2`, in that order: 1% and -0.1.
Take `CC(C)(C)C(=O)Nc1ccc(-c2ccc(OCCF)cn2)cn1`: the “% Inhibition” value was found to be 10% and the Z score is listed as -1.12.
For the compound `COc1ccsc1S(=O)(=O)N1CCC(N2CCc3cc(F)ccc32)CC1`, the “% Inhibition” value is on record as -16% and the Z score is 3.12.
